# Experimental data published in PubChem BioAssay AID1460 (National Center for Advancing Translational Sciences (NCATS), 2008).
# In all, about 270,000 compounds went through this assay and about 5,800 (2.1%) were called active. Inconclusive means that the source gave no clear call. Such entries were picked first, then a sample of the others. Calls come from the whole dose curve; as a rule, active = well fitted inhibition curve with a large enough effect; inconclusive = small, poorly fitted or top-dose-only effect; inactive = flat fitted curve, though single readings scatter. A potency beside an inconclusive call is a rough fit, not a confirmed value.
# Target: Microtubule-associated protein tau (Homo sapiens) (UniProt P10636)
# Assay: qHTS for Inhibitors of Tau Fibril Formation, Thioflavin T Binding; note: nearly all actives have a fitted effect of over 55% in size
# Conditions: recombinant tau K18 P301L (four-repeat tau fragment), heparin-induced fibrillization, ThT fluorescence; series mostly up to 57.4 µM
# Method in brief: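 In this qHTS, human K18 P301L tau is incubated with compound and heparin for 6 hr at 37 C, and Thioflavin T fluorescence then reports fibril load.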
# Potency is the fitted concentration of half-maximal effect; tags give direction and shape of the fitted curve.
# Chain of UniProt P10636 (P10636 whole entry, looked up): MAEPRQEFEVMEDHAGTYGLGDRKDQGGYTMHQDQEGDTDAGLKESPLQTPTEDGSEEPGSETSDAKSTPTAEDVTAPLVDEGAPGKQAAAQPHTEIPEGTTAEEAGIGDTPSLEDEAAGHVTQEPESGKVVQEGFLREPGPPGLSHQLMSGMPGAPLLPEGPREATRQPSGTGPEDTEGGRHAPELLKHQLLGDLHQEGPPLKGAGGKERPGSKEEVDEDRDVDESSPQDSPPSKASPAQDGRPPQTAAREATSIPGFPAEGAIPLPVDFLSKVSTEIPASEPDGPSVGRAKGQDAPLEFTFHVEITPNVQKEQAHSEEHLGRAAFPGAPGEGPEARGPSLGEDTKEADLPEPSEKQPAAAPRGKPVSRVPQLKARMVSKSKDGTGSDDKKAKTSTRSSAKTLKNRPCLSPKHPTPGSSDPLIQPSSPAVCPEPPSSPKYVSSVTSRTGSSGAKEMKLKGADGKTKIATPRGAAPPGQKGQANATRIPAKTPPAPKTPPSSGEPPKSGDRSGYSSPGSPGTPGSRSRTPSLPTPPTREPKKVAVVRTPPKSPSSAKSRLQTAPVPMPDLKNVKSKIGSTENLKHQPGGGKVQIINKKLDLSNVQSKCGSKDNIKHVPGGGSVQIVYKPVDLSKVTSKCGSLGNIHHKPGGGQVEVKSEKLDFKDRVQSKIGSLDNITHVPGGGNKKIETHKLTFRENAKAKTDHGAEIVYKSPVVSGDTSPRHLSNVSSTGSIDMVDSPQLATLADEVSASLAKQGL
row,SMILES,Potency
1,COc1ccc(NC(=O)CSc2nc(O)c(Cc3ccccc3)c(=O)[nH]2)cc1,"inconclusive: 15.8 µM [inhibitor, single point]"
2,Cc1nc2c(C(=O)NC(C)c3ccccc3)cnn2c(C)c1Cc1ccccc1 (centres undefined),"inconclusive: 20 µM [inhibitor, single point]"
3,Cc1cccc(-n2nc([N+](=O)[O-])c(=NC3CCN(Cc4ccccc4)CC3)n2O)c1,"inconclusive: 35.5 µM [inhibitor, single point]"
4,Oc1[nH]c2ccccc2c1/C=N/N1CCCCC1,"inconclusive: 31.6 µM [inhibitor, single point]"
5,O=C(CN1C(=O)CSC1=O)Nc1ccc(F)c(F)c1F,inactive
6,CCOc1ccc(-c2cc(CCCC(=O)Nc3cccc(OC)c3)no2)cc1,"inconclusive: 0.562 µM [inhibitor, full curve]"
7,CCC(/C=C/C(C)C1CCC2C3CC=C4CC(O)CC[C@@]4(C)C3CC[C@@]12C)C(C)C (some centres undefined),inactive
8,CCC1=C/C(=C/N(C)c2ccccc2)C(=O)S1,active: 25.1 µM
9,Cn1nnnc1SCC(=O)c1ccc2c(c1)OCCO2,inactive
10,N/C(=N\OC(=O)c1cc(Br)ccc1Cl)c1ccccn1,"inconclusive: 28.2 µM [inhibitor, single point]"
11,CN(C)CCN(Cc1ccccc1)c1ccnc(N(C)C)c1C#N,inactive
12,NC(=O)CC(NC(=O)Cc1ccc(Br)cc1)c1ccc(NCCc2ccc(F)cc2)c([N+](=O)[O-])c1 (centres undefined),"inconclusive: 7.94 µM [inhibitor, full curve]"
13,N#Cc1nc(COc2ccc(Cl)cc2)oc1N1CCCCCC1,inactive
14,Cc1ccc(N(CCC#N)C(=O)CSc2ccc3c(c2)OCCO3)cc1,inactive
15,Brc1cccc2sc(N3CCN(c4ccccc4)CC3)nc12,"inconclusive: 2.82 µM [inhibitor, full curve]"
16,O=c1cc(O)n(-c2ccccc2F)c(=S)[nH]1,"inconclusive: 10 µM [inhibitor, single point]"
17,CN1C(=O)N(C)C2=NNC=NC2(O)C1=O (centres undefined),inactive
18,c1csc(-c2nc3c4ccccc4c4ccccc4c3[nH]2)c1,"inconclusive: 15.8 µM [inhibitor, partial curve]"
19,N#CC(C#N)=Cc1ccc(OCC(=O)N2CCOCC2)cc1,"inconclusive: 28.2 µM [inhibitor, single point]"
20,CC(=O)N(c1ccccc1)c1nc(/C=C/C(=O)Nc2c(C)cc(C)cc2C)cs1,inactive
21,Nc1c(C(=O)N/N=C/c2ccc([N+](=O)[O-])cc2)cnn1-c1ccccc1,"inconclusive: 1.41 µM [inhibitor, full curve]"
22,CCOC(=O)C1CCCN(Cc2cc(Br)c(OC)cc2OC)C1 (centres undefined),inactive
23,O=C(CSc1nnc(CNc2ccccc2)o1)N1CCc2ccccc21,inactive
24,c1ccc(-c2nc(-c3ccccc3)c(NC3CCCCC3)o2)cc1,"inconclusive: 0.224 µM [inhibitor, full curve, poor fit]"
25,COc1ccccc1-c1noc(CCC(=O)Nc2ccccc2Cl)n1,inactive

row,SMILES,Potency
1,Cc1ccccc1Nc1c(-c2ccsc2)nc2c(C)cccn12,"inconclusive: 39.8 µM [inhibitor, single point]"
2,O=C(NCc1cccc(Cl)c1)c1cccn1-c1nnc(N2CCCC2)s1,inactive
3,CC(C)(C)c1ccc(-c2n[nH]c(=S)n2/N=C/c2ccncc2)cc1,inactive
4,CCC(=O)N1CCc2cc(S(=O)(=O)CCC(=O)N3CCN(c4cccc(C)c4)C(C)C3)ccc21 (centres undefined),"inconclusive: 14.1 µM [inhibitor, partial curve]"
5,Cn1nc(CC(=O)NC2CCCCCCCCCCC2)c2ccccc2c1=O,inactive
6,COC(=O)/C=C1/SC(=Nc2ccc(C)cc2C)NC1=O,"inconclusive: 15.8 µM [inhibitor, partial curve]"
7,CCOCCOC(=O)c1[nH]c2c(c1C)C(=O)CC(c1ccc(N(C)C)cc1)C2 (centres undefined),"inconclusive: 14.1 µM [inhibitor, partial curve]"
8,COC(=O)C1=C(C)N(CCc2c[nH]c3ccccc23)C(=O)/C1=C\N(C)C,active: 14.1 µM
9,CCc1ccc(-n2nc3ccc(NC(=O)c4cc5ccccc5o4)cc3n2)cc1,"inconclusive: 0.501 µM [inhibitor, full curve]"
10,Cc1ccc(-n2sc3ccccc3c2=O)cc1S(=O)(=O)N1CCCCC1,active: 15.8 µM
11,CCOc1cc(C(=O)OCc2cc(=O)n3c(C)csc3n2)cc(OCC)c1OCC,inactive
12,Cc1cccc(N(CC(=O)NC(C)c2ccccc2)S(=O)(=O)c2ccccc2)c1C (centres undefined),inactive
13,CCOC(=O)NC(=S)Nc1ccc(C(C)(C)C)cc1Br,"inconclusive: 14.1 µM [inhibitor, partial curve, poor fit]"
14,COc1cc(C2/C(=C(/O)c3ccc(F)cc3)C(=O)C(=O)N2CCCC(=O)O)ccc1O (centres undefined),inactive
15,Cc1cc(N/C=C/C(=O)c2ccc(Br)cc2)no1,"inconclusive: 2.82 µM [inhibitor, full curve]"
16,O=C(c1ccccc1)N1CCc2cc(CNS(=O)(=O)c3ccccc3Cl)ccc21,inactive
17,COc1ccc(OCC(=O)Nc2ccc(N3CCCCC3)cc2)cc1,"inconclusive: 2 µM [inhibitor, partial curve]"
18,CCn1cc(CNC(=S)Nc2cccc3ccccc23)cn1,inactive
19,CCOC(=O)Cc1nnc(NC(=O)CSc2nnc3c4ccccc4n(C)c3n2)s1,"inconclusive: 15.8 µM [inhibitor, partial curve, poor fit]"
20,CC(C)Nc1nc(Cl)nc(N(C#N)CN2C(=O)c3ccccc3S2(=O)=O)n1,"inconclusive: 15.8 µM [inhibitor, partial curve]"
21,O=C1CC(NCc2ccc(F)cc2)C(=O)N1c1ccccc1 (centres undefined),inactive
22,CCN1C(=S)SC(=O)C1=C1C=C(C)OC(C)=C1,"inconclusive: 10 µM [inhibitor, partial curve]"
23,CC(C)(C)C(=O)[C@H]1[C@H](c2ccccc2)[C@@]2(N=C(c3ccccc3)OC2=O)C2c3ccccc3C=NN21 (some centres undefined),"inconclusive: 20 µM [inhibitor, partial curve]"
24,CCCn1c(C)nc2c(NCCCCN(C)C)nc(C)nc21,"inconclusive: 10 µM [inhibitor, single point]"
